± gives the standard deviation of the averaged measurements. This is one part of the list.
What follows are sequences tested on PfAP2-LT AP2 domain (GST-tagged) (assay: gcPBM binding intensity (ln(normalized median fluorescence intensity)); higher = stronger DNA binding).
How it was run: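 Each value is the highest Masliner-normalised natural-log median intensity across replicate spots of either orientation of a probe. The probes were primer-extended double-stranded 36-bp intergenic genomic sequences on an Agilent 4 × 180k array, alongside negative controls, exposed for 1 h to GST-tagged P. falciparum DNA-binding domains expressed in E. coli. Bound protein was picked up with Alexa488 anti-GST antibody and scanned at 488 nm.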

Sequence | gcPBM binding intensity (ln)
AAATAGTATATAATATGTACATACATAAAAATGTAT [XGTACX_site3524] | 8.9 ± 0.46
ACCTATGTATATTATACACACTCCAAACTATTATTT [CACACA_site1817] | 9.06 ± 0.52
TTATATATATAGAAGTGTACAAAATTTCCTAGACCT [XGTACX_site3900] | 8.88 ± 0.42
ATCAAAATGTTAAAGATACACACCTAACAAACACAA [CACACA_site955] | 9.2 ± 0.35
GCACGCTGTATGAATGCACACATTCATAGAATTGCT [CACACA_site8852] | 9.04 ± 0.35
TATAAATATTTATAAACACACAAATATATATATTTA [CACACA_site27] | 8.6 ± 0.48
TATCGACATTTCATTTGTACATATATACATATATTT [XGTACX_site3346] | 9.01 ± 0.4
AAGAAAATTAAATTAACACACATAAATATGTAAATA [CACACA_site6882] | 9.06 ± 0.46
CCAATAATATATAGAAGTACAGAAAAAAAAAAAAAA [XGTACX_site2049] | 8.64 ± 0.42
CCCTCTTCTCTCATATCACACATGTCATCCTTATCC [CACACA_site5078] | 9.21 ± 0.52
GAAAAATGAAGAGAACAAAATTTTATGATATATATA [GTGCAC_negctrl_site231] | 8.74 ± 0.42
CCTTGAACCCCACTAACACACACACCCACGCTCAGA [CACACA_site8976] | 9.66 ± 0.17
TTTCATAAATAAATATGTACATAATTAATAATAAAT [XGTACX_site5882] | 8.63 ± 0.47
ATTTCACAGAAACACACACACAATATATTTCCTTTT [CACACA_site3904] | 9.56 ± 0.28
ATATGTATATATATTTGTACGTAAAATGAAATCTAA [XGTACX_site213] | 8.96 ± 0.4
TATACATAGATATATACACACATATATTTATATACA [CACACA_site6328] | 8.95 ± 0.41
ATTACAAAAAAAAAAAAAAAAAAAAAAAAAAAAAAA [CACACA_negctrl_site448] | 8.13 ± 0.29
ACAATAAAAATTTATGCATGTGAATTGAAAAAAAAA [TGCATGCA_site1037] | 8.72 ± 0.48
CTTATATATATATCATGTACTTATGTATTTAAGAAT [XGTACX_site3307] | 8.61 ± 0.43
AATATATACAATATATGTACATATATATACACATAT [XGTACX_site4190] | 8.98 ± 0.39
CTTTTATTAAAATTCACACACATAAACTTTTATAAA [CACACA_site7027] | 8.71 ± 0.39
ATAAAATACCTATAAACACACATATAAACAGACATA [CACACA_site7213] | 9.25 ± 0.33
GTTATTGAAAAAATAGTGCAATATAACAAAGTAAAA | 8.85 ± 0.48
AAATAAAACAAACACACACACACATACACAAAAAAA [CACACA_site3849] | 10.12 ± 0.035
TAATTTCTTATGTATTGTACAAATAATATATGATAT [XGTACX_site611] | 8.54 ± 0.29

Reference: the supplement of paper PMC11417369
